Our source for the percent labeling values is PubChem BioAssay AID2202238 (Ras Initiative Chemistry Research Team, Frederick National …, 2025).

The list shows a part of the results. These are further read-outs of the screen, such as a control signal, another cell line or another target. No call is given for them.

This experiment addresses GTPase KRas (Homo sapiens) (UniProt P01116). Description: Covalent labelling of cysteine mutants by fragments, read by mass spectrometry (AID 2202238). More on the design: protein at 5 µM with 500 µM competing thiol for 1.5 h. Conditions: KRAS G12D cysteine mutants, disulfide tethering, MALDI-TOF labeling, stronger effect = higher value, fragment at 500 µM.
Sequence of UniProt P01116 (P01116 whole entry, looked up, the tested form may be a part): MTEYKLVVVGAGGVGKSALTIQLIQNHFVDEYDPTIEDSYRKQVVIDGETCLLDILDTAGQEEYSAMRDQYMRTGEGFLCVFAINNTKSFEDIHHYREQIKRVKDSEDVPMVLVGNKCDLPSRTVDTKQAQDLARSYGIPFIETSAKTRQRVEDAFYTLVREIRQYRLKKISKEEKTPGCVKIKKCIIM
Where [1] appears, read: measured here: G60C mutant labeling.
Where [2] appears, read: measured here: G75C mutant labeling.
The mark [3] stands for this setting: measured here: H94C mutant labeling.
Setting [4] is: measured here: I36C mutant labeling.
The mark [5] stands for this setting: measured here: L120C mutant labeling.
The mark [6] stands for this setting: measured here: M67C mutant labeling.
Where [7] appears, read: measured here: M72C mutant labeling.
Where [8] appears, read: measured here: N26C mutant labeling.
Setting [9] is: measured here: N86C mutant labeling.
Setting [10] is: measured here: P121C mutant labeling.
The mark [11] stands for this setting: measured here: S122C mutant labeling.
The mark [12] stands for this setting: measured here: S136C mutant labeling.

`N#Cc1ccc(N2CCC(C(=O)NCCS)CC2)c(F)c1` registered a percent labeling under setting [1] of 17.4%; a percent labeling under setting [2] of 4.7%; a percent labeling under setting [3] of 12.8%; a percent labeling under setting [4] of 14.5%; a percent labeling under setting [5] of 15.7%; a percent labeling under setting [6] of 13.4%. The percent labeling under setting [7] came to 19.7%; the percent labeling under setting [8] is 29.9%; the percent labeling under setting [9] is 4.4%; the percent labeling under setting [10] amounted to 12.3%; the percent labeling under setting [11] is 8%; the percent labeling under setting [12] turned out to be 14.1%.

As for `O=C(CCS)NC1CCN(C2CCOCC2)CC1`, the percent labeling under setting [2] amounted to 12.4%; the percent labeling under setting [3] was determined as 29.8%; the percent labeling under setting [4] is 53.6%; the percent labeling under setting [5] was found to be 24.3%; the percent labeling under setting [6] was 43.2%; the percent labeling under setting [7] is 19%. In addition, the percent labeling came to 25.8% under setting [9], 31.9% under setting [10], 28.7% under setting [11] and 52.7% under setting [12].

With `O=C(Cc1cnccc1C(F)(F)F)NCCS`, the percent labeling runs as follows: under setting [1], 39.3%; under setting [2], 15.5%; under setting [3], 34.1%; under setting [4], 28.7%; under setting [5], 42.1%; under setting [6], 32.3%. In addition, the percent labeling worked out at 26.5% under setting [7]; 35.7% under setting [8]; 36.8% under setting [9]; 33% under setting [10]; 34.6% under setting [11]; 41.2% under setting [12].

Regarding `Cc1cccc(CC(=O)NCCS)c1Br`, the percent labeling by setting is: under setting [1], 57.5%; under setting [2], 22.5%; under setting [3], 28.7%; under setting [4], 20.6%; under setting [5], 41%; under setting [6], 27.6%. In addition, the percent labeling by setting is: under setting [7], 49.9%; under setting [8], 36%; under setting [9], 26.3%; under setting [10], 24.9%; under setting [11], 20.9%; under setting [12], 46.3%.

As to `O=C(CCS)NC1CC(O)(C(F)(F)F)C1` (stereo not given), the percent labeling under setting [2] is 10%; the percent labeling under setting [3] was 27.7%; the percent labeling under setting [4] worked out at 31.4%; the percent labeling under setting [5] worked out at 20.8%; the percent labeling under setting [6] was 27%; the percent labeling under setting [7] was determined as 15.7%. For the same compound, the percent labeling worked out at 13.9% under setting [9], 33.7% under setting [10], 36% under setting [11] and 40.2% under setting [12].

For `O=C(CCS)NCCCc1cn[nH]c1C(F)(F)F`, the percent labeling was 17.6% under setting [2]; 38.8% under setting [3]; 43.1% under setting [4]; 39.2% under setting [5]; 48% under setting [6]; 47.5% under setting [7]. In addition, the percent labeling by setting is: under setting [9], 33.9%; under setting [10], 36.9%; under setting [11], 41.4%; under setting [12], 50.7%.

With `O=C(CCS)NC1CCc2ccccc2-n2ccnc21` (stereo not given), the percent labeling is, setting by setting: under setting [2], 20.6%; under setting [3], 43%; under setting [4], 52.6%; under setting [5], 52.3%; under setting [6], 46.9%; under setting [7], 39.1%. The percent labeling reads like this: under setting [9], 32.9%; under setting [10], 39.6%; under setting [11], 34.7%; under setting [12], 85.8%.

As to `COc1ccc2c(c1)CCN(C(=O)CCS)C2`, the percent labeling worked out at 17.2% under setting [2]; 20.1% under setting [3]; 22.5% under setting [4]; 17.5% under setting [5]; 22.5% under setting [6]; 42.6% under setting [7]. The compound further registered a percent labeling under setting [9] of 21%, a percent labeling under setting [10] of 22.6%, a percent labeling under setting [11] of 22.9% and a percent labeling under setting [12] of 41.1%.

As for `O=C(CCS)NC1CC(N2CCOCC2)C1` (stereo not given), the percent labeling is, setting by setting: under setting [2], 16%; under setting [3], 24%; under setting [4], 35.3%; under setting [5], 24%; under setting [6], 28.7%; under setting [7], 11.8%. The percent labeling was found to be 18.1% under setting [9], 32.2% under setting [10], 31.3% under setting [11] and 45.6% under setting [12].

`CCCC(NC(=O)CCS)c1ncc(-c2ccc3c(c2)OCO3)[nH]1` (stereo not given): the percent labeling is, setting by setting: under setting [2], 11.2%; under setting [3], 33.1%; under setting [4], 24%; under setting [5], 13.5%; under setting [6], 23.2%; under setting [7], 23.1%. Further, the percent labeling reads like this: under setting [9], 14.6%; under setting [10], 19.2%; under setting [11], 8.3%; under setting [12], 27.5%.

`COc1cccc(N2CCN(C(=O)CCS)CC2)c1`: the percent labeling runs as follows: under setting [2], 8.7%; under setting [3], 25.7%; under setting [4], 24.4%; under setting [5], 23.1%; under setting [6], 25.4%; under setting [7], 20.8%. The percent labeling runs as follows: under setting [9], 6.8%; under setting [10], 22.3%; under setting [11], 26.4%; under setting [12], 41.8%.

As for `Cc1nn(COc2ccc(F)cc2)c(C)c1NC(=O)CCS`, the percent labeling runs as follows: under setting [2], 13.8%; under setting [3], 40.1%; under setting [4], 42.8%; under setting [5], 23.5%; under setting [6], 56.7%; under setting [7], 27.8%. Besides, the percent labeling reads like this: under setting [9], 32.8%; under setting [10], 30.8%; under setting [11], 27.6%; under setting [12], 53%.

Regarding `CN1C(=O)COc2ccc(C(=O)NCCS)cc21`, the percent labeling by setting is: under setting [1], 44.9%; under setting [2], 27.8%; under setting [3], 45.5%; under setting [4], 30.2%; under setting [5], 41.8%; under setting [6], 35%. Also, the percent labeling under setting [7] came to 59.9%; the percent labeling under setting [8] came out at 53.7%; the percent labeling under setting [9] was found to be 23.3%; the percent labeling under setting [10] was found to be 31.9%; the percent labeling under setting [11] worked out at 30.4%; the percent labeling under setting [12] amounted to 49.9%.

For the compound `CC(=O)N(Cc1ccsc1)C1CC12CCN(C(=O)CCS)CC2` (stereo not given), the percent labeling by setting is: under setting [2], 15.1%; under setting [3], 33.2%; under setting [4], 32.3%; under setting [5], 29.7%; under setting [6], 47%; under setting [7], 26.6%. The percent labeling is, setting by setting: under setting [9], 21.2%; under setting [10], 30.2%; under setting [11], 28.9%; under setting [12], 65.7%.

`O=C(NCCS)c1cc2ccccc2[nH]c1=O` yielded a percent labeling under setting [1] of 19.3%; a percent labeling under setting [2] of 12.7%; a percent labeling under setting [3] of 16.9%; a percent labeling under setting [4] of 19.9%; a percent labeling under setting [5] of 15.5%; a percent labeling under setting [6] of 14.3%. In addition, the percent labeling reads like this: under setting [7], 54.2%; under setting [8], 25.6%; under setting [9], 12.2%; under setting [10], 20.9%; under setting [11], 8.4%; under setting [12], 33.1%.

Regarding `O=C(CCS)N1CCN(c2ccncc2F)CC1`, the percent labeling by setting is: under setting [2], 17%; under setting [3], 35.7%; under setting [4], 45.3%; under setting [5], 32.8%; under setting [6], 45.6%; under setting [7], 30.1%. Further, the percent labeling runs as follows: under setting [9], 21.9%; under setting [10], 31.4%; under setting [11], 30%; under setting [12], 57.1%.

`COc1sccc1C(=O)NCCS` returned a percent labeling under setting [1] of 62.6%; a percent labeling under setting [2] of 38.7%; a percent labeling under setting [3] of 60.2%; a percent labeling under setting [4] of 31.4%; a percent labeling under setting [5] of 47.7%; a percent labeling under setting [6] of 42.9%. Besides, the percent labeling is, setting by setting: under setting [7], 68.7%; under setting [8], 44.6%; under setting [9], 42%; under setting [10], 37.2%; under setting [11], 40.2%; under setting [12], 57.1%.

As to `Cc1cn(-c2ccccc2)nc1C(=O)NCCS`, the percent labeling by setting is: under setting [1], 14.5%; under setting [2], 11.8%; under setting [3], 10.6%; under setting [4], 9%; under setting [5], 12.6%; under setting [6], 10.1%. The percent labeling was determined as 34.6% under setting [7]; 31.3% under setting [8]; 7.5% under setting [9]; 12.1% under setting [10]; 7% under setting [11]; 15.5% under setting [12].

Turning to `CC(C)C(C(=O)NCCS)n1cnc2cc(F)c(F)cc21` (stereo not given), the percent labeling reads like this: under setting [1], 40.1%; under setting [2], 6.4%; under setting [3], 22.2%; under setting [4], 26.7%; under setting [5], 17.5%; under setting [6], 33.3%. In addition, the percent labeling is, setting by setting: under setting [7], 21.3%; under setting [8], 33.8%; under setting [9], 13.7%; under setting [10], 20.7%; under setting [11], 19.7%; under setting [12], 29.2%.

Take `O=C(NCCS)C(F)(F)C1(O)CCCCCC1`: the percent labeling stood at 49.1% under setting [1]; 19.6% under setting [2]; 35% under setting [3]; 21.6% under setting [4]; 41.9% under setting [5]; 31.6% under setting [6]. For the same compound, the percent labeling was 28.5% under setting [7]; 38.6% under setting [8]; 31% under setting [9]; 32.2% under setting [10]; 34% under setting [11]; 45.3% under setting [12].

With `Cc1nc(C2CCN(C(=O)CCS)CC2)c2n1CCN(C)C2`, the percent labeling came to 9.5% under setting [2]; 33.1% under setting [3]; 46.7% under setting [4]; 29.4% under setting [5]; 50.3% under setting [6]; 15.9% under setting [7]. Besides, the percent labeling under setting [9] amounted to 29.3%, the percent labeling under setting [10] came out at 26%, the percent labeling under setting [11] amounted to 25.4% and the percent labeling under setting [12] was found to be 51.1%.

In turn, `O=C(Nc1ccccc1O)C1CCN(C(=O)CCS)CC1` showed a percent labeling under setting [2] of 12.1%; a percent labeling under setting [3] of 39.1%; a percent labeling under setting [4] of 38.3%; a percent labeling under setting [5] of 40.5%; a percent labeling under setting [6] of 75.2%; a percent labeling under setting [7] of 32.3%. The percent labeling was 43.8% under setting [9], 38.1% under setting [10], 34.4% under setting [11] and 56.1% under setting [12].

Turning to `CC(C)(C)C(NC(=O)CCS)c1nc(-c2ncn[nH]2)no1` (stereo not given), the percent labeling under setting [2] was found to be 11.2%; the percent labeling under setting [3] amounted to 34.4%; the percent labeling under setting [4] amounted to 37%; the percent labeling under setting [5] is 35.7%; the percent labeling under setting [6] was found to be 34.6%; the percent labeling under setting [7] amounted to 27.3%. For the same compound, the percent labeling turned out to be 33.7% under setting [9], 33.1% under setting [10], 36.7% under setting [11] and 47.1% under setting [12].

As to `COc1ccc(C(F)(F)C(=O)NCCS)cc1`, the percent labeling reads like this: under setting [1], 42.3%; under setting [2], 18.2%; under setting [3], 19%; under setting [4], 16.6%; under setting [5], 25.5%; under setting [6], 20.2%. Further, the percent labeling by setting is: under setting [7], 42.6%; under setting [8], 29.3%; under setting [9], 15.6%; under setting [10], 17.9%; under setting [11], 19.2%; under setting [12], 20.2%.
